We go through 64 compounds from PMC6919601, “Identification of Plasmodium dipeptidyl aminopeptidase allosteric inhibitors by high throughput screening” (PLoS ONE, 2019).

Where “and” joins values, the source holds several entries; their conditions need not be identical. Equal values may be shown once. About 230 (0.21%) of roughly 110,000 compounds showed an effect of 50% or more. This is one part of the list.
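Note: 30 min substrate incubation versus DMSO and 10 µM JCP410 controls.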

DPAP1, sequence (Q8IIJ9 whole entry, looked up): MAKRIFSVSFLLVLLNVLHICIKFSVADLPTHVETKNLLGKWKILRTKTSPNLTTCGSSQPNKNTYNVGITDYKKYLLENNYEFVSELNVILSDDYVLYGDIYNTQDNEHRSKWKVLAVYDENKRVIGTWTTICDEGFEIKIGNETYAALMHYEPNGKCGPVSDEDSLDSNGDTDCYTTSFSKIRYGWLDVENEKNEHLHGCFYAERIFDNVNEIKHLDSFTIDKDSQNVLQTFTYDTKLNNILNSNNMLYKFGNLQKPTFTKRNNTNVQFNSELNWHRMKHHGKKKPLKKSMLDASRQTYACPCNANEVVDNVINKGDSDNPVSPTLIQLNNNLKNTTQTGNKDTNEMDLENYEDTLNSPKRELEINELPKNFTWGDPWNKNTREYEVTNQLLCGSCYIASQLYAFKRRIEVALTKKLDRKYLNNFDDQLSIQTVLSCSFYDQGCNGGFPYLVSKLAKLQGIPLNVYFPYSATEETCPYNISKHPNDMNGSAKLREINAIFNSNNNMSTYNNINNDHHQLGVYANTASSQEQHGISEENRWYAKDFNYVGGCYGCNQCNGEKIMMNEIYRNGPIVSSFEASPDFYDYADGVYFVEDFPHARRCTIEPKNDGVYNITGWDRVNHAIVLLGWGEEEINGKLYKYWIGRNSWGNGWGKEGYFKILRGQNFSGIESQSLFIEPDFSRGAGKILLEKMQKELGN

This experiment has as its target DPAP1 (Plasmodium falciparum, UniProt Q8IIJ9). The experiment can be described thus: primary screen, percent inhibition; read by cleavage of a fluorogenic dipeptide substrate; higher = more effect of the substance. On the set-up: species or system P. falciparum D10 trophozoite lysates; single well.
As for `Cn1nnc2c(NC3CC3)nc(Cc3ccc(Cl)cc3Cl)nc21`, the “% Inhibition @ 10 uM” value came to 5.06%.
Under `Cc1ccc(NC(=O)c2sc3nc4c(cc3c2N)CCC4)c(C)c1` stands 4.08%.
The result for `O=C(O)/C=C/C(=O)Nc1cc(Cl)cc(Cl)c1` reads 0.467%; that for `Cc1cccc2sc(NC(=O)c3cccs3)nc12`, 3.8%.
The result for `O=C(NCCOc1ccccc1Cc1ccccc1)c1ccc2c(c1)OCO2` reads -2.63%; that for `CCOC(=O)N1CCC(NC(=O)C2CCCN2C(=O)OCc2ccccc2)CC1` (stereo not shown), -2.17%.
Consider `CC(NC(=O)CSc1nnnn1-c1ccc2c(c1)OCO2)C12C[C@H]3C[C@@H](C1)C[C@@H](C2)C3` (stereo partly shown), for which the “% Inhibition @ 10 uM” value was -2.05%.
The result for `CC1CCCC(C)N1CCCNC(=O)c1ccc2nc(N3CCCCC3)sc2c1` (stereo not shown) reads -4.15%.
Under `Cc1nnc(N2CCC(C(=O)N(C)Cc3ccccc3)CC2)c2nn(-c3ccccc3)c(C)c12` stands 3.74%.
Under `CC(=O)N1CCN(CCC(C)c2ccccc2)CC1` (stereo not shown) stands 1.88%; under `N#CCNC(=O)[C@H](CSCc1ccccc1)NC(=O)c1ccc2ccccc2c1`, -6.98%; under `CCc1ccc(C2C=C(c3ccc(Br)cc3)Nc3ncnn32)cc1` (stereo not shown), 1.73%.
With `Oc1nnc(-c2cccc3ccccc23)c2cn(-c3ccccc3)nc12`, the “% Inhibition @ 10 uM” value was -9.11%.
Consider `Cc1ccc2c(nc3s/c(=C/c4ccc(F)cc4)c(=O)n32)c1C`, for which the “% Inhibition @ 10 uM” value is reported as 3.32%.
Under `COc1ccc(OCC(=O)Nc2ccc(S(=O)(=O)Nc3nccs3)cc2)cc1` stands -5.07%; under `O=C(CCn1cccc1)NC1CCCCCC1`, 2.57%; under `O=C(CN1CCCCC1)n1c2ccccc2c2ccccc21`, 2.03%.
Regarding `Cc1ccc(CN(C(=O)COc2c(F)c(F)c(F)c(F)c2F)C2CCS(=O)(=O)C2)o1` (stereo not shown), the “% Inhibition @ 10 uM” value amounted to 3.77%.
The result for `CC(=O)C1=C(O)C(=O)N(CCc2c[nH]c3ccccc23)C1c1ccc(Cl)cc1` (stereo not shown) reads 3.8%; that for `CC(C)(C)c1ccc(C(=O)Nc2cccc(NC(=O)c3cccc([N+](=O)[O-])c3)c2)cc1`, 17.2%; that for `O=C(c1cc2c(Cl)nc3ccccc3c2s1)N1CCN(Cc2ccccc2)CC1`, -3.37%.
Turning to `Cc1ccc2nc(NC(=O)C3CCCO3)sc2c1` (stereo not shown), the “% Inhibition @ 10 uM” value was determined as 3.17%.
The result for `CCc1cc2c(N3CCN(Cc4ccc5c(c4)OCO5)CC3)ncnc2s1` reads -16.1%; that for `O=C(NCCN1CCOCC1)c1cnn2c(C(F)(F)F)cc(-c3ccc(F)cc3)nc12`, 8.21%.
Under `COc1ccc(CC(C)NCC2CCCO2)cc1` (stereo not shown) stands -3.6%; under `COc1ccc(-c2nc(C#N)c(N3CC(C)CC(C)C3)o2)cc1` (stereo not shown), 6.73%.
The result for `CCOCCn1c(CN2CCC(C)CC2)nc2c1c(=O)n(C)c(=O)n2C` reads -1.43%; that for `Cc1ccc(-c2cn3nc(N4CCCC(C(=O)NC(C)C)C4)sc3n2)cc1` (stereo not shown), 3.21%; that for `O=c1/c(=C\c2c[nH]c3ccccc23)sc2n1CCN=2`, -5.04%.
As for `Clc1cccc(N2CCN(C3CCSC3)CC2)c1` (stereo not shown), the “% Inhibition @ 10 uM” value is recorded as -2.91%.
Under `COCCN(Cc1ccco1)C(=O)Cn1ncc2c1-c1cc(C)ccc1OC2` stands -1.36%; under `COc1ccc(-c2noc(N3CCC(C(=O)N4CCC(Cc5ccccc5)CC4)CC3)n2)cc1`, 3.36%; under `O=C(O)c1ccc(Cl)c(S(=O)(=O)N2CCCCC2)c1`, -4.08%.
For `C/C(=C\c1ccccc1F)C(=O)c1c(C)cc(C)nc1O`, the “% Inhibition @ 10 uM” value stood at 17.9%.
Under `COc1ccc(C2=N/C(=C\c3coc4ccccc4c3=O)C(=O)O2)c(Cl)c1` stands 10.5%; under `O=C(CN(c1ccc2c(c1)OCCO2)S(=O)(=O)c1ccccc1)NC1CC1`, -0.872%; under `O=C(O)c1cc2c(Cl)ccc3c2n1CCO3`, -3.53%.
In the case of `CC(C)C[C@H](NC(=O)c1ccc2c(c1)CCCC2)C(=O)NCC#N`, the “% Inhibition @ 10 uM” value was -1.82%.
The result for `Cc1cc(C(=O)NC(C)(C)C)on1` reads 3.01%; that for `Cc1ccc(NC(=O)Nc2ccc(C(=O)N3CCCCC3)cc2)cc1`, -0.28%.
On to `COc1ccc(CN(CCc2ccccc2)S(=O)(=O)c2cccc3nsnc23)cc1`, for which the “% Inhibition @ 10 uM” value is given as -3.96%.
As to `Cc1cc(/C=C2/SC(=O)N(CC(=O)N3CCN(c4ccccc4)CC3)C2=O)c(C)n1C(C)C`, the “% Inhibition @ 10 uM” value stood at 5.44%.
The result for `CCCn1c(CCNC(=O)COc2ccccc2)nc2ccccc21` reads -1.29%.
Under `CN(C)Cc1ccc(O)c(CCc2ccccc2)n1` stands 0.716% and -2.18%.
As for `CCOc1ccc(CCNC(=O)Cn2ncc3c(=O)oc4ccc(C)cc4c32)cc1OCC`, the “% Inhibition @ 10 uM” value was -0.0115%.
Under `Cc1ccc(C)c(Cn2c(C(=O)O)c(CNCc3ccco3)c3ccccc32)c1` stands 10.8%; under `Cc1ccc(NC(=O)COc2ccc(C)cc2C)cc1`, -8.06%; under `O=C(CSc1c2c(nc3ccccc13)CCCC2)NCc1cccnc1`, -3.23%.
Under `O=C(/C=C/c1ccco1)c1ccc(F)cc1` stands 14.1%.
Under `COc1ccc(OC)c(C2CC(c3ccc(Br)cc3)=NN2C(=O)CCC(=O)O)c1` (stereo not shown) stands 12.3%; under `O=C(c1cccs1)N1CCN(C(c2ccccc2)c2ccccc2)CC1`, -5.92%.
`Clc1cccc(CN2CCN(Cc3ccncc3)CC2)c1`: the “% Inhibition @ 10 uM” value is listed as -1.3%.
The result for `Cc1cc(=O)oc2cc(OCC(=O)Nc3ccccc3Cl)ccc12` reads 10.2%; that for `N#CCNC(=O)[C@H](CSCc1ccccc1)NC(=O)c1cccc(C(=O)c2ccccc2)c1`, -0.214%.
The result for `COC(=O)C12CC3CC(C)(CC(C)(C3)C1)C2` reads -0.424%; that for `O=C(COc1ccccc1)Nc1ccc(Br)c(Cl)c1`, -8.68%.
On to `CCN(Cc1ccccc1)C(=O)CCc1nc(-c2ccc(OC)cc2)no1`, for which the “% Inhibition @ 10 uM” value is 18.2%.
The result for `Cc1ccc(S(=O)(=O)Nc2nc[nH]n2)cc1` reads -10.3%.
The result for `COc1cc(C2C(C#N)=C(N)Oc3[nH]nc(C)c32)cc(Cl)c1OCc1cccc(F)c1` (stereo not shown) reads 0.658%; that for `Cc1ccc(C(CC(=O)NCc2ccco2)c2ccccc2)c(O)c1C` (stereo not shown), -12.4%; that for `CCc1nn2c(=O)c(S(=O)(=O)NCc3ccc(F)cc3)c(C)nc2s1`, 0.91%.
The result for `OC12CCCCC1C(c1ccc(F)c(F)c1)NCC2` (stereo not shown) reads -0.13%; that for `Cc1ccc(-c2noc(-c3nnn(-c4cc(C)ccc4C)c3N)n2)cc1`, 4.98%.
For `Cn1c2ccccc2c2c(C(=O)NCc3ccco3)cn(C3CCCCC3)c(=O)c21`, the “% Inhibition @ 10 uM” value is reported as -3.39%.
